Experimental data as given in PubChem BioAssay AID624417 (National Center for Advancing Translational Sciences (NCATS), 2012).
Among all 410,000 compounds or so, about 6,400 (1.6%) were called active. The inconclusive results got no clear call from the source; some entries with a clear call stand among them for comparison. The call rests on the fitted dose curve; in most records, active means well fitted inhibition curve with a large enough effect; inconclusive means small, poorly fitted or top-dose-only effect; inactive means no such curve, though single readings can be large or run the other way. No potency is given beside an inconclusive call; the fits are too rough.

target: Glucagon-like peptide 1 receptor (Homo sapiens) (UniProt P43220); assay: qHTS of GLP-1 Receptor Inverse Agonists (Inhibition Mode); conditions: HEK293 GLP-1R CRE-luciferase, luminescence, 24 h, GLP-1R form is constitutively active; activity change, negative = inhibition: at 38.3 µM (top of the series) unless noted; further: nearly all actives have a fitted effect of over 55% in size
Summary of the method: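 Constitutively active GLP-1R drives a cAMP-responsive luciferase in stably transfected HEK293 cells; test compounds are added after overnight (12 h) attachment and left 24 hr, and signal loss in luminescence marks inhibition.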
On the % scale 0 is the no-effect control and ±100 the full control effect; potency means the concentration at half of the fitted maximal effect; tags describe the fitted curve by direction and shape.

UniProt P43220, sequence (P43220 whole entry, looked up): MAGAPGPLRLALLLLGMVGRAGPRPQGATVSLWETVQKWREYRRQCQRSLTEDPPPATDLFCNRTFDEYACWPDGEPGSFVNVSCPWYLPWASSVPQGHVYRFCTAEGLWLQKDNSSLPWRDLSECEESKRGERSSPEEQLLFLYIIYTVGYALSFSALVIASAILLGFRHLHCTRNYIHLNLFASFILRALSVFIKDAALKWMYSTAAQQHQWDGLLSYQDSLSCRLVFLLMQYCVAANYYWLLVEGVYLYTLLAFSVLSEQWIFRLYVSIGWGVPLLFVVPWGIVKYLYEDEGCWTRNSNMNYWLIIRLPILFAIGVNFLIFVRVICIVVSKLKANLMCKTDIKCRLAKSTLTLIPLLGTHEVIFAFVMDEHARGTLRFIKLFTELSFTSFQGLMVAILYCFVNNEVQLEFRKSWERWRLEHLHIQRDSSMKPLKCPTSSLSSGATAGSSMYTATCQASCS

SMILES	activity change, negative = inhibition	Potency
CSc1ccccc1OCc1cc(C(=O)NC(C)c2cnn(C)c2)no1 (stereo not given)	inactive: 12.9%	
COc1cccc(CNC(=O)c2c(C)nn(-c3cccc(C)c3)c2-n2cccc2)c1		inconclusive [inhibitor, partial curve, poor fit]
O=C(CSc1nnc(-c2cccnc2)o1)Nc1ccccc1F		inconclusive [inhibitor, single point]
CCCCN(C(=O)c1ccc(NC(=O)C(C)C)cc1)c1ccccc1		inconclusive [inhibitor, single point]
CCN1C(=O)[C@H]2[C@H]3CN=C(SCc4ccc(Cl)cc4)N3[C@@](Cc3ccccc3)(C(=O)OC)[C@H]2C1=O		inconclusive [inhibitor, single point]
COc1cc([N+](=O)[O-])cc(/C=N/NC(=O)C(C)Nc2cccc3ccccc23)c1O (stereo not given)		inconclusive [inhibitor, single point]
CCCOc1ccc(F)cc1-c1cc(C(=O)Nc2ccc(C)c(NS(C)(=O)=O)c2)[nH]n1		inconclusive [inhibitor, partial curve]
COc1ccc(/C=C(\C#N)C(=O)OCC(=O)Nc2ccc(-c3nc4ccc(C)cc4s3)cc2)cc1	inactive: -1.8%	
COc1ccc(S(=O)(=O)N2CCN(C3CCN(Cc4ccccc4)CC3)CC2)cc1		inconclusive [inhibitor, single point]
CCCC(C)NC(=O)c1ccc(OCc2ccc(Cl)cc2)c(OC)c1 (stereo not given)		inconclusive [inhibitor, partial curve, poor fit]
CCn1cc(CNCc2ccc(OCC(O)CN(C)Cc3ccccc3)cc2)cn1 (stereo not given)		inconclusive [inhibitor, partial curve, poor fit]
c1ccc(N/N=C(\Cc2nc3ccccc3[nH]2)c2ccccc2)cc1		inconclusive [inhibitor, single point]
O=S(=O)(NCCC1=CCCCC1)c1ccccc1Cl		inconclusive [inhibitor, single point]
CCN(C(=O)COc1ccccc1)C1CCCCC1		inconclusive [inhibitor, single point]
Cc1ccc(CN2C(=O)C[C@@H](NC(=O)OCC3c4ccccc4-c4ccccc43)C/C=C\C2c2ccc(C)cc2)cc1 (stereo not given in full)		inconclusive [inhibitor, partial curve, poor fit]
COc1cccc(CC2(CO)CCCN(Cc3ccccc3Cl)C2)c1 (stereo not given)		inconclusive [inhibitor, single point]
CC(C)c1ccc(/C=N/NC(=O)c2cccc(Cl)c2)cc1		inconclusive [inhibitor, partial curve]
O=C(CSc1ccc2ccccc2n1)c1ccc2c(c1)OCO2		inconclusive [inhibitor, single point]
CCOC(=O)Nc1ccc(Oc2ccccc2)cc1		inconclusive [inhibitor, single point]
Cc1ccc(-c2ccc(/C=N/N3C(=O)C4C5C=CC(C6CC56)C4C3=O)o2)c([N+](=O)[O-])c1 (stereo not given)		active: 3.55 µM

SMILES	activity change, negative = inhibition	Potency
O=C(NC(=S)N1CCCC1)c1ccccc1Cl		inconclusive [inhibitor, single point]
CCCC(=O)Nc1nc2ccc(S(=O)(=O)N3CCCCC3)cc2s1		inconclusive [inhibitor, full curve, poor fit]
Cc1cc(SCC(=O)N/N=C/c2ccccc2C(=O)O)c(C)cc1Br	inactive: -34.1%	
CCCNC(=O)c1ccc2c(c1)N(Cc1cccc(C)c1)C(=O)c1ccccc1S2		inconclusive [inhibitor, single point]
COc1cc(C(=O)N(C)CC(=O)Nc2cccc(F)c2)ccc1OCc1ccccc1		inconclusive [inhibitor, partial curve, poor fit]
CCCCNC(=O)C1(C)CCCCN1Cc1ccc(-c2ccccc2)cc1 (stereo not given)		inconclusive [inhibitor, partial curve, poor fit]
O=C(NCCc1ccccc1C(F)(F)F)c1cc(COc2ccccc2)on1		inconclusive [inhibitor, single point]
COc1ccc(NC(=O)N2CCC(C(=O)c3ccc(F)cc3)CC2)cc1		inconclusive [inhibitor, partial curve, poor fit]
Cc1c(C(=O)N2CCN(c3ccccc3F)CC2)oc2c1C(=O)CC(C)(C)C2		inconclusive [inhibitor, single point]
CC1CC(Nc2ccccc2)c2ccccc2N1C(=O)c1ccco1 (stereo not given)		inconclusive [inhibitor, partial curve, poor fit]
O=C(CSC1=NCCS1)N1CCN(c2ccc(Cl)cc2)CC1		inconclusive [inhibitor, single point]
CCC(=O)c1cc(F)c(N2CCN(S(=O)(=O)c3ccccc3)CC2)cc1C		inconclusive [inhibitor, single point]
O=C(c1cccc(Cl)c1)N1CCN(C2CCCCCC2)CC1		inconclusive [inhibitor, partial curve]
CC1CCCC(C)N1C(=O)COC(=O)C1CCN(S(=O)(=O)c2ccc3c(c2)OCCO3)CC1 (stereo not given)		inconclusive [inhibitor, partial curve, poor fit]
C=C(C)C1CC=C(CN2CCN(Cc3ccccc3)CC2)CC1 (stereo not given)		inconclusive [inhibitor, single point]
Cc1cccc(N2CCN(S(=O)(=O)c3ccc4c(c3)NC(=O)CO4)CC2)c1C		inconclusive [inhibitor, partial curve, poor fit]
Cc1c(C(=O)NCc2ccc(C(C)C)cc2)sc(=O)n1Cc1ccc(S(=O)(=O)N(C)C)cc1		inconclusive [inhibitor, full curve, poor fit]
COC(=O)c1ccc2[nH]c3cccc(/C(=C/c4ccccc4)c4ccccc4)c3c2c1		inconclusive [inhibitor, single point]
C/C(=N\NC(=O)c1ccoc1C)c1cccc2ccccc12		inconclusive [inhibitor, partial curve, poor fit]
OCCNc1nc(N2CCN(c3ccccc3)CC2)nc2ccccc12		inconclusive [inhibitor, single point]

SMILES	activity change, negative = inhibition	Potency
COc1cc(NC(=O)Cn2c(=O)n(Cc3ccccc3OC)c(=O)c3cccnc32)cc(OC)c1	inactive: -19.2%	
O=C(C1CCCCC1)N1C[C@@H](O)[C@H](n2cc(C3CC3)nn2)C[C@@H]1c1ccc(Cl)cc1		inconclusive [inhibitor, single point]
COc1ccc(OCC(=O)Nc2nccs2)cc1	inactive: -1.56% [at 0.307 µM]	
Cn1cc(C(=O)C(=O)NCCc2ccccc2)c2ccccc21		inconclusive [inhibitor, single point]
Cc1ccc(CCN2CC(C(=O)NCc3ccc4c(c3)OCO4)CC2=O)cc1 (stereo not given)		inconclusive [inhibitor, single point]
Cc1cccc(N(C)S(=O)(=O)c2ccc(-c3cnc(C4CC4)o3)cc2)c1	inactive: -72.4%	
COc1cc(/C=N\NC(C)=O)ccc1OC/C=C/c1ccccc1		inconclusive [inhibitor, single point]
Cc1ccc2c(Cl)c(C(=O)NCCc3ccccc3)sc2c1	inactive: 2.38%	
O=C(CSc1nc2ccccc2s1)NC1CCCc2ccccc21 (stereo not given)		inconclusive [inhibitor, partial curve, poor fit]
CCCCCCCCNS(=O)(=O)CCNC1CCCCC1		inconclusive [inhibitor, partial curve, poor fit]
CCOC(=O)CCn1nc(-c2ccc(C)cc2)c2ccccc2c1=O		inconclusive [inhibitor, single point]
CCOc1ccc(/C=C/C2=CC(C)(C)NC(=S)N2)cc1		inconclusive [inhibitor, partial curve, poor fit]
CCc1ccc(CN(Cc2ccco2)C(=O)c2ccccc2Cl)cc1		inconclusive [inhibitor, single point]
CC(C)(C)c1ccc(C(=O)Nc2cccc(S(=O)(=O)NC3=NCCC3)c2)cc1		inconclusive [inhibitor, partial curve, poor fit]
O=C(CCn1c2c(c3ccccc31)CCCC2)NNC(=O)c1ccccc1[N+](=O)[O-]		inconclusive [inhibitor, full curve, poor fit]
Cc1cc(OCC(=O)Nc2ccc(CN3CCCCC3)cc2)ccc1Cl		inconclusive [inhibitor, partial curve, poor fit]
CCOC(=O)CC(Nc1nc(N2CCOCC2)nc(N2CCOCC2)n1)c1ccccc1Cl (stereo not given)		inconclusive [inhibitor, single point]
Cc1cc2c(cc1C)N[C@]1(C[C@H]3CCCC(=O)N4CC[C@@H](C1)[C@@H]34)C(=NC(C)(C)CC(C)(C)C)N2		inconclusive [inhibitor, single point]
O=C(Nc1cccc(Cl)c1)c1ccc2c(=O)n3c(nc2c1)CCCCC3		inconclusive [inhibitor, single point]
O=C(c1ccc(Cl)c(S(=O)(=O)N2CCCCCC2)c1)N1CCCC(C(F)(F)F)C1 (stereo not given)		inconclusive [inhibitor, single point]
